From the RNAGym collection of RNA variant scans (doi:10.1073/pnas.2313332121)
Variants at the background level are over-represented here.

B1: TPR 5TU (parent)
chain: GGAUCUUCUCGAUCUAACAAAAAAGACAAAUCUGCCACAAAGCUUGAGAGCAUCUUCGGAUGCAGAGGCGGCAGCCUUCGGUGGCGCGAUAGCGCCAACGUUCUCAACUAUGACACGCAAAACGCGUGCUCCGUUGAAUGGAGUUUAUCAUG

Variants of: B1
Assay: polymerase ribozyme fitness, log enrichment relative to wild type (log ratio); higher = more active; in vitro selection for triplet polymerase activity
Procedure, shortened: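 Only genotypes with ≥10 input reads and ≥1 read per output were kept after Illumina sequencing of input and output libraries. These libraries were PCR-built, transcribed mutants of each subunit of a heterodimeric triplet polymerase ribozyme, each put through one triplicate in vitro selection round with frozen incubation at −7 °C, gel excision of extended constructs, streptavidin-bead capture and RT-PCR. Fitness is a logarithmic ratio of genotype enrichment to wild-type enrichment, from inverse-variance-weighted replicate averages, with the logarithm in base 2.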

Polymerase ribozyme fitness (log ratio), ≤ -4.2:
A66G G83A A89C G100C C103G C114U A115U G124U
C85G C93U C118A A119U A122U A137G
A66C C95U
G68A C79U G84U C125U
G68U G86A
G68C G88U
C75G C93G U111C A113U G136A U145A
G83A C99A U109C
G84U A137C
C72G G88A C99U G133C
A66C C93G
C75G G92U U101G
A73C U78G G83A C95A U148A
U77A U82C G141C
A66G U77G C85G C93G G133C U144A A147C
U82A G94U C132G
U78A C85U
G67A G92A
G68A C76U C93U U127A
C72U G81C G83C C99G
C85A A115G G143C
G71A C103A A147C
C85G A106U A137C A138C U148A
U82G C93G C96A
C76U C96A U139G A142U G143C U151C
G84C G143U
C79G C85U G92A C95U U148A
C75G C93A C105A C114U A121U
C72U G88U A107G G117C C118U U148A
C72U C79A G94C U139C
C75A G94C G100A C108A C129G U146G
G68C C76G C85G G124C G143U
C75A C93G
G68C G70A G83U U144A
C85A C93A
G71A C85A C118A G133U G140U
G68A G70A C76U C96G C99A U104A U139A
G68C C85U A89C
U78A G86C A98U C99U C105G C123A C149U
U78G G94A A97U
C76U C85G U151A
G68A C96U U101G C131U
C79U C96A C129A G141A
C75U C108U A119G
G83A G92C G112U A113U C114A C118G
C79G G83C G88A G92U G140U U145G A147G
A66C U134G
G68C C103G A119C
G70C C99G
U78A A121G C149U
G70A C76A G83U G88C
G68C G88C C129A
G83A C95A U111C C125U
C72A A97U C105U
G71C C108G
C69U A73G C129G U144C
C79A C99A G100A A113G
G71U A91U
G71A C96A U127A U144C
G67C U77G A89C A120C
C76G G94C C95A U139A A142C U145G
C75G G83U C96U A147G A150U
G80U C85U G92A A98G C149A
G68A G92C A121G A137G G143A
A73G C116A A142U
C72A C87U
A73U C93A G152A
C79G G80C G83A A122G C125U G140U
C85G C95A G100A A110C
G74C C108A A110G
C75A C129G
C76A G88U C105G A142G
A73U G83C C87G G140C
U77G C99G
G68U G80A G143A
C79U U102A A107C C149A
C69G G81C U109C
A66G U78C A138G
C69U C76U C95A U104G C131A
G74A C75G A91U A120U C132U
C79A U134G A150C
C72G G84U A91U C95U A106G C114U U134A
G83C G88C G126C C129G U135A G141C
G68A C85G A106G A137G A138U
C85A C118G A137C U151A
G71U G84A C96A A122G
G83U C87U C93U G100U A107U
C79A C114A U134A U135A
G84C U148A
C85A C95G C96A U135C
G81C G88A U102G
C76U A91U A107C G136A
C76A C87G A91C C118G
C69G C95U C99A C105G C118A G136U
A66C C85G C95U
G83U C105G C131U A142C
G81A G92A C103G A122U C125G G141A
A73U U78G C87U
G68C G94A
A66G C85A A122C
G83C C95A C116G
G83C C114A U139G A142G G152U
A66U C87U
C75U A91G G133C U145C
G68C G80A C93U
G83C A107C G136C
G74C A138C
U77C A91U A142C
G84U A107U G140A
G67A C93G G152U
G68A C76A G80U C105U
A73G U102G C116A U146G U148G
C85G C95U C99U C116A G128A
C85A A91U C96U A97U C105A C123U A147G
C72U G88U A97G G128C
A66U C123U G126C U139G G143U
A73U G80A C87U G152C
G70A G81U G94C U145C
C72A A91U
G68A G71A G100A U139G
C72G G88C A119U A138U U144A
A73G G92U C99U A115G U148G
A73C G84C A138G
A66U G84U A97U C118U C149A
C76A C85A A97C C108G U111G
C69G C76G
G70A G84A C99U C105U U148C
A73G G80C C132A G141C
G80C C93A A120U U127G G141C
G67C G71C G86U C116U G133U G136U
G68A C85U G94U U101G C149G U151C
G80C C96G C105U
C76G A91U C103U A120C U139C
G68A G81U G92A A137C
C75U G86A U139C
G71U U102G A107G
U77C C87G C93G
U77C A97G A121G
C72G G88U U102G A115G U139G G143U
G74A G86U G88U C93U U145A
C85G C93A G124A U139G G141C A150C
G67C C79U A91U U144A
G71C G84U A97C
G71A C96G U104C C131G
A66C C93G A107U
G71U G84A C131G
U78G A106G
G74U U77C C96A A97U C116G G128A U139A
C72A U77A
U78A G80U A91U C105U A119U U135A G140U U145G
C79A C87A G88A A115G A120U G141U
G83A U104A G117U G136A U148C
A66U C99U
G68A A89U
G68A G86C G100A A115G
C76G C85U C103U A119U
G83A G84U U135A A138C
A66C G86U U90C C108U U151A
G74C U144A
A73C G92U G128U
G81A G94U C96A U104C G143U U148A A150C
G67U C76A C85G C87G
C69U C76A A89G C96G C118G A122G
G71A C93A
G68U G117A U148G
C75U C99A C118G C132A A137U A142G U145A
G67U U77A G83U C87G U134A G141C U144G
